US11365205B2 (Aurigene Discovery Technologies Limited, priority 2018, dated 2022)

These molecules were tested against PRMT5/MEP50 Complex (Homo sapiens (Human), UniProt O14744) (assay: PRMT5 inhibition based on TR-FRET assay). Conditions: 32 nM PRMT5:MEP50, 50 nM Histone-H4 peptide, 1 μM SAM.
Format: biochemical
Description: PRMT5 Inhibition Based on TR-FRET Assay:
Protein arginine methyltransferase 5 (PRMT5) is a type II arginine methyltransferase that catalyze mono- and symmetric demethylation on arginine residues of histone or non-histone proteins in presence of S-adenosylmethionine (AdoMet or SAM) a cofactor responsible for donating the methyl group. PRMT5 is reported to be overexpressed in several human cancers. To identify compounds that inhibit the PRMT5 and decrease its activity, a TR-FRET based assay has been established. Time-resolved fluorescence resonance energy transfer (TR-FRET) HTS assays are homogeneous proximity assays where the interaction of two dye-labeled binding partners is detected by the energy transfer between a donor and an acceptor dye and the subsequent light emission by the acceptor dye. PRMT5 catalyzes Histone H4 peptide which is biotin tagged to the Lysine amino acid at carboxyl end, in presence of S-adenosyl-1-methionine (SAM) to methylate the peptide. The antibody specific to mono methylated H4 peptide (H4R3) with Ig conjugate binds to the methylated peptide, indirectly binding to the Europium lanthanide. SureLight Allophycocyanin-Streptavidin binds to the biotin tag of the peptide, therefore accepting the energy transferred from the Europium lanthanide. This energy transfer between Europium to SureLight Allophycocyanin is a direct measure of the activity/inhibition of the PRMT5 enzyme.
Assay buffer: 20 mM BICINE (pH 7.6), 25 mM NaCl, 2 mM DTT, 0.01% Tween-20 and 0.01% BSA.
The compound dilutions were prepared as 7.5% DMSO stock solutions in assay buffer. To 2 μL (7.5×) of test compound, 5 μL of PRMT5 enzyme prepared in assay buffer (Final concentration of 32 nM in 15 μL reaction volume) was added and allowed for 30 minutes pre-incubation time in a white polystyrene 384-well plate at room temperature. […] The plates were then read on Victor-3 with Excitation at 340 nm and Emissions collected at 615 and 665 nm in TR-FRET protocol. […]

Sequence of UniProt O14744 (O14744 whole entry): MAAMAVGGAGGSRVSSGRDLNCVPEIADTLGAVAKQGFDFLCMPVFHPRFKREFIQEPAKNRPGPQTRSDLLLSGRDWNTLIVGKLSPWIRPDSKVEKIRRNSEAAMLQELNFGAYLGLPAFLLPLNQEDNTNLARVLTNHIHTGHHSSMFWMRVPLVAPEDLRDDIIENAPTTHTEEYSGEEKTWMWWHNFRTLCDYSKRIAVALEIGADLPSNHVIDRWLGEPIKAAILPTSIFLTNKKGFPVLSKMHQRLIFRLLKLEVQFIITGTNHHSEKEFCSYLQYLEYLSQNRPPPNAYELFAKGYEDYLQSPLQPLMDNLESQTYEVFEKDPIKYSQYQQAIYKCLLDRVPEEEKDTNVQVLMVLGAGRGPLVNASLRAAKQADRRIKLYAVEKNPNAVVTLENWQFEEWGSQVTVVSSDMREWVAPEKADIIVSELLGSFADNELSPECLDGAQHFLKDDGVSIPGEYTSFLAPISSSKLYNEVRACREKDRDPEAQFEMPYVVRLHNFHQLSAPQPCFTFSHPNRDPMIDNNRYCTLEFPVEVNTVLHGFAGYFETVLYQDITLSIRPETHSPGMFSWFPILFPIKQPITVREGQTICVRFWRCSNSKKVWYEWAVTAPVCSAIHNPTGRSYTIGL
Sequence of UniProt O14744 (Q9BQA1 whole entry partner): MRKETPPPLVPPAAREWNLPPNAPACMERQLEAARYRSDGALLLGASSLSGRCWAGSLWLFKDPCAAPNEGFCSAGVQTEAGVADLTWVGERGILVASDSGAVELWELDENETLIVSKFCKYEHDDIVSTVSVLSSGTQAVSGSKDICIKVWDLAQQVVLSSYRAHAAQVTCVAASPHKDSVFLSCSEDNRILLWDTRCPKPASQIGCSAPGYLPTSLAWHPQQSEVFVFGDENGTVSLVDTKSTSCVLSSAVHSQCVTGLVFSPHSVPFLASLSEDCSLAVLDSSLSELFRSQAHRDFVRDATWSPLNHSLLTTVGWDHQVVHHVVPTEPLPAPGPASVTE

Row | IC50 [nM] | Structure (SMILES)
1 | 40 | CC1(C)CN(Cc2ccc(C#N)cc2)C(=O)N1CC(O)CN1CCc2ccccc2C1 (single isomer, unassigned) [Example 2a, 4-((3-(3-(3,4-dihydroisoquinolin-2(1H)-yl)-2-hydroxypropyl)-4,4-dimethyl-2-oxoimidazolidin-1-yl)methyl)benzonitrile]
2 | 210 | N#Cc1ccc(Cn2c(=O)n(CC(O)CN3CCc4ccccc4C3)c3ncccc32)nc1 (stereo not drawn) [Example 99, 6-((3-(3-(3,4-dihydroisoquinolin-2(1H)-yl)-2-hydroxypropyl)-2-oxo-2,3-dihydro-1H-imidazo[4,5-b]pyridin-1-yl)methyl)nicotinonitrile]
3 | 100 | O=C(Nc1ccc(CN2CCN(C[C@H](O)CN3CCc4ccccc4C3)C2=O)nc1)C1CCOCC1 [Example 107, (R)-N-(6-((3-(3-(3,4-dihydroisoquinolin-2(1H)-yl)-2-hydroxypropyl)-2-oxoimidazolidin-1-yl)methyl)pyridin-3-yl)tetrahydro-2H-pyran-4-carboxamide]
